B1: CPEB3 Ribozyme (parent)
chain: UAACAGGGGGCCACAGCAGAAGCGUUCACGUCGCAGCCCCUGUCAGAUUCUGGUGAAUCUGCGAAUUCUGCUGUAUAUCUC

The source gives no read counts; variants with many changes may rest on few reads.

The data set covers variants of B1. In words: self-cleavage, relative activity (ratio to wild type); higher = more cleavage; in vitro, sequencing. The gist of the method:
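After error-prone PCR and barcoding, CPEB3 ribozyme mutant libraries were transcribed with T7 RNA polymerase at 37°C for 5 hours, then given 15 min with DNase I before an EDTA stop, and they cleaved during both steps. Reverse transcription with template switching preceded Illumina sequencing. Relative activity divides a variant's cleaved/total read fraction by the unmutated ribozyme's. At least 5 reads were required per variant, and three batches were averaged.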
Turning to U43C U54C A57G, the self-cleavage was 0.18.

With U43A A45G U76A, the self-cleavage came out at 0.71. As to U43C C68U U76C, the self-cleavage is 0.14. The result for U43A A45G U72C U80A reads 1.16. Regarding G42A G63A U78C, the self-cleavage came to 0.26.

As for U43A A45U U67C U78C, the self-cleavage stood at 0.16. Under U43C A56U U69C stands 0.26. Turning to U43G C79U U80C, the self-cleavage is 0.14. Turning to U41G G53C U72C, the self-cleavage was determined as 0.2. U43A U69A A75G U80C: the self-cleavage stood at 0.46. For U43C U54C U58C C71U U72C, the self-cleavage was found to be 0.21. The result for A45C U72C U80A reads 0.6; that for U43C A47U U78C, 0.5. On to U43C A45G U58C U72C, for which the self-cleavage amounted to 0.07. With U43C U74C A77C, the self-cleavage turned out to be 1.03.

For the variant U43A U54C U58G U60C, the self-cleavage worked out at 0.21.

In the case of A45G A56G C71U, the self-cleavage came out at 0.53.

In the case of A45C A64U U72A, the self-cleavage came to 0.11. As for G42C A47G A56U U60A, the self-cleavage was 0.13. Consider U43C A56U A65G U78C, for which the self-cleavage is 0.09.

Regarding U43C C50G G53A A57G, the self-cleavage is 0.21. The result for U43A U49A G52A reads 0.82; that for U43C A45G U74C U80A, 1.06; that for U41C U69C U72A U80C, 0.23. Regarding A45G A47G A64G, the self-cleavage amounted to 0.33.

As for U41G U67C U69C, the self-cleavage is 0.06.

A45G A47U G52U: the self-cleavage was found to be 0.24. With U43A U67G U72C, the self-cleavage was determined as 0.42. U43C A45U U60C U69C: the self-cleavage was determined as 0.14. On to U43C A56U U72C, for which the self-cleavage was 0.16. Consider A45G A47G A57G U69C A75G, for which the self-cleavage amounted to 0.09.

On to G42C U48C U80C, for which the self-cleavage was 0.28.

Consider C44G A47G A65U, for which the self-cleavage was determined as 0.09. On to U41G A47U U60C, for which the self-cleavage came to 0.11.

Take U41C U74C U80A: the self-cleavage amounted to 1.27. Under G42C A57U A65U stands 0.06; under U43C A56C U58A U80C, 0.1; under A45G A47G U51G, 0.28. The result for A45G A47G U51C reads 0.53; that for U41C U69C C79U, 0.79. Under U43A U72C A75G U80C stands 1.15; under U41G U51A U54A A56U U60C A65G U78G, 0.03; under A45G A47G U54G U76A, 0.54. With C44U A45G U51A, the self-cleavage came out at 0.61.

For U43C U69A U80A, the self-cleavage stood at 0.24. G42A U60C U67A: the self-cleavage is 0.16. U41C U67C U78A: the self-cleavage stood at 0.3.

For the variant U41C U67C U78C, the self-cleavage came out at 0.21.

U41C U76A U78C: the self-cleavage stood at 1.17. For the variant U43C U51G A64G A65G U76C, the self-cleavage was 0.15.

In the case of U43A A47G U49C, the self-cleavage amounted to 0.47. Under U43C U72C U74A stands 0.29. Consider U43A G63A A75G, for which the self-cleavage came to 0.89. Regarding U43A U67C U72C, the self-cleavage is 0.38. On to U41G A65U C81U, for which the self-cleavage amounted to 0.21.

C44U U49A U80C: the self-cleavage was 0.09. The result for U43C C50G U78C reads 0.14. For the variant C44U G53U U67C, the self-cleavage amounted to 0.11. C44U U58C U78C: the self-cleavage is 0.09. Regarding U43C U54C A64G, the self-cleavage was determined as 0.15.

In the case of U43A U58C U60C A64G A65U, the self-cleavage is 0.23.

Regarding U43C U49C G70A U80C, the self-cleavage was 0.24. As for U43C G52C U54G A57G, the self-cleavage was found to be 0.42.

On to U43C U51A A65G U72C U76C, for which the self-cleavage came to 0.32.

For the variant U43C U54A A64U, the self-cleavage came to 0.2. For A45G A47G C59G U67C U80C, the self-cleavage was determined as 0.12.

In the case of U43C A45G U60C, the self-cleavage came out at 0.96.

Take U43A C50U U78C: the self-cleavage was 1.14.

As to U43A U58C U74C, the self-cleavage was 0.9. As for U43C C59U U67C, the self-cleavage was 0.12.

Take U43G A45G U48C: the self-cleavage is 0.24. On to U43C G53C U54C, for which the self-cleavage stood at 0.37.

With U43C U58G U67A U69C U76A U78C, the self-cleavage worked out at 0.07.

With U43C U48A G73A, the self-cleavage worked out at 0.35. On to U43A A56G U69G, for which the self-cleavage is 0.6. The result for U43C U66A U80A reads 0.24.

Regarding U43C U49C U69C A75U, the self-cleavage stood at 0.11. The result for U43A U48C U76C reads 0.74. As for U43C C59U U78C, the self-cleavage turned out to be 0.17.

Consider U43C U51C A64G U67A, for which the self-cleavage turned out to be 0.43.

Regarding U43C G52A U72C, the self-cleavage was 0.94.

As to A45C U66C U67C, the self-cleavage stood at 0.39.

For U43G A56U A64G, the self-cleavage amounted to 0.16. Under C44A A45G U58C U69C U78A stands 0.14; under U43A A57G A75U U78C, 0.94; under U41G A47G U54C, 0.15. The result for U43C A57G A64C U69G U74G reads 0.2; that for U43C A45G C71U, 0.19.

Consider U43C C71U A77U U78C C79A, for which the self-cleavage is 0.32.

For A45C U54A U76C, the self-cleavage was determined as 0.23. Regarding U43C U54A A57G, the self-cleavage came to 0.37. For the variant U43A U66C U76A U80C, the self-cleavage was 0.38. Consider U43C U67C U80A, for which the self-cleavage is 0.29. For the variant U41C U69A U76C U80C, the self-cleavage was found to be 0.76.

For U43C A47U U80A, the self-cleavage is 0.21.

As for U43C A64G U74A, the self-cleavage stood at 1.03. Regarding U43C U54C U60A U78C, the self-cleavage was determined as 0.37. Regarding U43G U51C U78C, the self-cleavage came to 0. For the variant U43A A45U A56U U66C, the self-cleavage came to 0.06.

For the variant U43C U60C A64U U78C, the self-cleavage was found to be 0.05. Turning to U43C A57G U76C, the self-cleavage was 0.34. For A45G A47G U48C U51C, the self-cleavage was determined as 0.11. For the variant U43A A45G U74C, the self-cleavage turned out to be 1.26. In the case of U41G A57U U58C, the self-cleavage stood at 0.14. For U43C U67A U72A U80C, the self-cleavage is 0.19. The result for U43A U54C U60A U66C reads 0.28; that for U43A U74C U80C, 1.26; that for U43C A47G U54C, 0.22. As to C44A U66C U74C, the self-cleavage worked out at 0.38.

As for U43C U48C C62A, the self-cleavage stood at 0.58. Turning to U41C U69C G70A A77G, the self-cleavage was determined as 0.19. Consider U43C U58A C62G, for which the self-cleavage was found to be 0.22.

C44A A75U U80A: the self-cleavage worked out at 0.79. Consider G42U C44A U69A, for which the self-cleavage came to 0.17. Under U43A U58C A77G stands 0.48; under G42A U60C U67C G73A U78C, 0.07; under A45G A56C U76A, 0.55. Under C44G U54C U78C stands 0.33; under U43C G55A U76A, 0.21. Under A45G A47G U76C stands 0.54; under U43A A64G A65G, 0.22.

Turning to U43C A77G U80A, the self-cleavage turned out to be 0.77. Under A45G A47U U67A stands 0.2; under U43C U54G G73A, 1.09; under A45C A64G A77G, 0.09. Consider U43C U51A A56U U72A A75U, for which the self-cleavage was 0.39. As to U43C U60C U72A, the self-cleavage came out at 0.39. U43C U49C U74C: the self-cleavage worked out at 0.22. The result for A45G A47G U49C reads 0.12. In the case of A45G A47G U49A, the self-cleavage was determined as 0.18. On to U43C A56U A65G, for which the self-cleavage worked out at 0.17.

Turning to U43C A56U G61U G63A U66C U72C A77G, the self-cleavage came out at 0.24. C44U U69G U72C U78A: the self-cleavage is 0.11.

For A45G A56U G73A, the self-cleavage was determined as 0.86. The result for U43C U49C U69C reads 0.15; that for U41C U72A U76C, 1.03.

As to G42U A56U G63A U74G, the self-cleavage was found to be 0.31. Consider U43C A65G U69C A77U, for which the self-cleavage turned out to be 0.18. Consider U43C U48C U69A G73C U74A, for which the self-cleavage came out at 0.2. Under U43C G61A A75G stands 0.15; under U41C U69C U76C, 0.76; under A45C U48C U80C, 0.21. For the variant U43C A56U U78C, the self-cleavage was 0.26. Take U43A U51A G55U U78A: the self-cleavage was 0.98. Under U43C A45U A56G stands 0.36; under U43A U51C U80A, 1.24; under U43G A45U U49C U51G U80C, 0.17.

For U41G C50U U67A, the self-cleavage was 0.26. As to U43C U54C A77G, the self-cleavage came to 0.23. The result for U41G U60C U80C reads 0.21; that for U43C A45G U51A, 0.51. Under U43C U54C C62U A64G U78C stands 0.11. Turning to A45C G52U U80G, the self-cleavage was found to be 0.85. As to U43C A56G A64G U67C, the self-cleavage was 0.14. As to U41G U49G C62A U69A U78C, the self-cleavage was 0.05. As for U41G U60A A64G U67C, the self-cleavage was 0.14.

A45G A47G A64G U74A: the self-cleavage came out at 0.58.

On to U41G U54C U60A U69C U72C, for which the self-cleavage came out at 0.19. For A45C U51A U69A, the self-cleavage was 0.45. With U43C C44U A47U A57C U66A, the self-cleavage was 0.19. As for A45C U69C U80A, the self-cleavage was 0.27. Under U43C U60C A77U stands 0.09; under C44U G53U U78C, 0.47. U41G U49C U54C U67C: the self-cleavage was 0.2. As to A45G A47U U49G, the self-cleavage was 0.09. The result for U43C A47G U60C U80C reads 0.17; that for U43C A65G U66G, 0.24.
